# Measurements taken from the supplement of paper PMC8728848.
# The other results are listed elsewhere or left out.
# B1: Siglec 6 (Homo sapiens), O43699 (protein)
# chain: MLPLLLPLLWAGALAQERRFQLEGPESLTVQEGLCVLVPCRLPTTLPASYYGYGYWFLEGADVPVATNDPDEEVQEETRGRFHLLWDPRRKNCSLSIRDARRRDNAAYFFRLKSKWMKYGYTSSKLSVRVMALTHRPNISIPGTLESGHPSNLTCSVPWVCEQGTPPIFSWMSAAPTSLGPRTTQSSVLTITPRPQDHSTNLTCQVTFPGAGVTMERTIQLNVSYAPQKVAISIFQGNSAAFKILQNTSSLPVLEGQALRLLCDADGNPPAHLSWFQGFPALNATPISNTGVLELPQVGSAEEGDFTCRAQHPLGSLQISLSLFVHWKPEGRAGGVLGAVWGASITTLVFLCVCFIFRVKTRRKKAAQPVQNTDDVNPVMVSGSRGHQHQFQTGIVSDHPAEAGPISEDEQELHYAVLHFHKVQPQEPKVTDTEYSEIKIHK
# Columns and labels:
# Test in all cases: glycan array binding signal (z-score within array); higher = stronger binding
# Details in all cases: glycan notation: IUPAC condensed, linker removed
# Fuc(a1-2)Gal = target: Fuc(a1-2)Gal
# Method in brief: (§1)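 Columns mapping to the same glycan were averaged after glycan names were converted to IUPAC-condensed notation. The data come from 3228 arrays in the Consortium for Functional Glycomics database, limited to those with an available protein sequence. Binding is reported as a within-array Z-score averaged across arrays of one protein sequence and across linkers.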
# Fuc(a1-2)Gal(b1-3)GalNAc = target: Fuc(a1-2)Gal(b1-3)GalNAc
# Method in brief: as §1
# [1] = target: Fuc(a1-2)Gal(b1-3)GalNAc(b1-3)Gal
# Method in brief: as §1
# [2] = target: Fuc(a1-2)Gal(b1-3)GalNAc(b1-3)Gal(a1-4)Gal(b1-4)Glc
# Method in brief: as §1
# [3] = target: Fuc(a1-2)Gal(b1-3)GalNAc(b1-3)Gal(b1-4)Glc
# Method in brief: as §1
# [4] = target: Fuc(a1-2)Gal(b1-3)GalNAc(b1-4)[Neu5Ac(a2-3)]Gal(b1-4)Glc
# Method in brief: as §1
# [5] = target: Fuc(a1-2)Gal(b1-3)[Fuc(a1-4)]GlcNAc
# Method in brief: as §1
# Fuc(a1-2)Gal(b1-4)Glc = target: Fuc(a1-2)Gal(b1-4)Glc
# Method in brief: as §1
# Fuc(a1-2)Gal(b1-4)GlcNAc = target: Fuc(a1-2)Gal(b1-4)GlcNAc
# Method in brief: as §1
# [6] = target: Fuc(a1-2)Gal(b1-4)GlcNAc(b1-3)Gal(b1-4)GlcNAc
# Method in brief: as §1
# [7] = target: Fuc(a1-2)Gal(b1-4)GlcNAc(b1-3)Gal(b1-4)GlcNAc(b1-3)Gal(b1-4)GlcNAc
# Method in brief: as §1
# [8] = target: Fuc(a1-2)Gal(b1-4)[Fuc(a1-3)]GalNAc(b1-3)Gal(b1-4)[Fuc(a1-3)]GlcNAc
# Method in brief: as §1
# [9] = target: Fuc(a1-2)Gal(b1-4)[Fuc(a1-3)]GalNAc(b1-3)Gal(b1-4)[Fuc(a1-3)]GlcNAc(b1-3)Gal(b1-4)[Fuc(a1-3)]GalNAc
# Method in brief: as §1
# [10] = target: Fuc(a1-2)Gal(b1-4)[Fuc(a1-3)]GlcNAc
# Method in brief: as §1
# Fuc(a1-2)GlcNAc = target: Fuc(a1-2)GlcNAc
# Method in brief: as §1
# Fuc(a1-2)[Gal(a1-3)]Gal = target: Fuc(a1-2)[Gal(a1-3)]Gal
# Method in brief: as §1
# [11] = target: Fuc(a1-2)[Gal(a1-3)]Gal(b1-3)GlcNAc
# Method in brief: as §1
# [12] = target: Fuc(a1-2)[Gal(a1-3)]Gal(b1-4)Glc
# Method in brief: as §1
# [13] = target: Fuc(a1-2)[Gal(a1-3)]Gal(b1-4)GlcNAc
# Method in brief: as §1
# [14] = target: Fuc(a1-2)[Gal(a1-3)]Gal(b1-4)[Fuc(a1-3)]GlcNAc
# Method in brief: as §1
# [15] = target: Fuc(a1-2)[Gal(a1-4)]Gal(b1-4)GalNAc
# Method in brief: as §1
# [16] = target: Fuc(a1-2)[GalNAc(a1-3)]Gal
# Method in brief: as §1
# [17] = target: Fuc(a1-2)[GalNAc(a1-3)]Gal(b1-3)GlcNAc
# Method in brief: as §1
# [18] = target: Fuc(a1-2)[GalNAc(a1-3)]Gal(b1-4)Glc
# Method in brief: as §1
# [19] = target: Fuc(a1-2)[GalNAc(a1-3)]Gal(b1-4)GlcNAc
# Method in brief: as §1
# [20] = target: Fuc(a1-2)[GalNAc(a1-3)]Gal(b1-4)[Fuc(a1-3)]GlcNAc
# Method in brief: as §1
# [21] = target: Fuc(a1-2)[GalNAc(a1-4)]Gal(b1-4)GlcNAc
# Method in brief: as §1
# Fuc(a1-3)GlcNAc = target: Fuc(a1-3)GlcNAc
# Method in brief: as §1
# [22] = target: Fuc(a1-3)[Gal(b1-4)]GlcNAc
# Method in brief: as §1
# [23] = target: Fuc(a1-3)[Gal(b1-4)]GlcNAc(b1-4)Gal(b1-4)[Fuc(a1-3)]GlcNAc
# Method in brief: as §1
# [24] = target: Fuc(a1-3)[Gal(b1-4)]GlcNAc(b1-4)Gal(b1-4)[Fuc(a1-3)]GlcNAc(b1-4)Gal(b1-4)[Fuc(a1-3)]GlcNAc
# Method in brief: as §1
# [25] = target: Fuc(a1-3)[Gal3S(b1-4)]GlcNAc
# Method in brief: as §1
# [26] = target: Fuc(a1-3)[GalNAc(b1-4)]Gal(b1-4)GlcNAc
# Method in brief: as §1
# Fuc(a1-4)GlcNAc = target: Fuc(a1-4)GlcNAc
# Method in brief: as §1
# Fuc(b1-3)GlcNAc = target: Fuc(b1-3)GlcNAc
# Method in brief: as §1
# Gal(a1-2)Gal = target: Gal(a1-2)Gal
# Method in brief: as §1
# Gal(a1-3)Gal = target: Gal(a1-3)Gal
# Method in brief: as §1
# Gal(a1-3)Gal(b1-3)Glc = target: Gal(a1-3)Gal(b1-3)Glc
# Method in brief: as §1
# Gal(a1-3)Gal(b1-3)GlcNAc = target: Gal(a1-3)Gal(b1-3)GlcNAc
# Method in brief: as §1
# Gal(a1-3)Gal(b1-4)GlcNAc = target: Gal(a1-3)Gal(b1-4)GlcNAc
# Method in brief: as §1
# [27] = target: Gal(a1-3)Gal(b1-4)[Fuc(a1-3)]GalNAc
# Method in brief: as §1
# Gal(a1-3)GlcNAc = target: Gal(a1-3)GlcNAc
# Method in brief: as §1
# [28] = target: Gal(a1-3)[Gal(a1-4)]Gal(b1-4)GlcNAc
# Method in brief: as §1
# Gal(a1-4)Gal(b1-4)Gal = target: Gal(a1-4)Gal(b1-4)Gal
# Method in brief: as §1
# Gal(a1-4)Gal(b1-4)GalNAc = target: Gal(a1-4)Gal(b1-4)GalNAc
# Method in brief: as §1
# Gal(a1-4)GlcNAc = target: Gal(a1-4)GlcNAc
# Method in brief: as §1
# Gal(a1-6)Glc = target: Gal(a1-6)Glc
# Method in brief: as §1
# Gal(b1-2)Gal = target: Gal(b1-2)Gal
# Method in brief: as §1
# Gal(b1-3)Gal = target: Gal(b1-3)Gal
# Method in brief: as §1
# Gal(b1-3)GalNAc = target: Gal(b1-3)GalNAc
# Method in brief: as §1
# [29] = target: Gal(b1-3)GalNAc(b1-3)Gal(a1-4)Gal(b1-4)Glc
# Method in brief: as §1
# [30] = target: Gal(b1-3)GalNAc(b1-3)Gal(b1-4)Glc
# Method in brief: as §1
# [31] = target: Gal(b1-3)GalNAc(b1-3)Gal(b1-4)GlcNAc
# Method in brief: as §1
# [32] = target: Gal(b1-3)GalNAc(b1-4)Gal(b1-4)Glc
# Method in brief: as §1
# [33] = target: Gal(b1-3)GalNAc(b1-4)[Neu5Ac(a2-3)]Gal(b1-4)Glc
# Method in brief: as §1
# [34] = target: Gal(b1-3)[Fuc(a1-4)]GlcNAc
# Method in brief: as §1
# [35] = target: Gal(b1-3)[Fuc(a1-4)]GlcNAc(b1-3)Gal(b1-4)GlcNAc
# Method in brief: as §1
# [36] = target: Gal(b1-3)[Fuc(a1-4)]GlcNAc(b1-3)Gal(b1-4)[Fuc(a1-3)]GlcNAc
# Method in brief: as §1
# [37] = target: Gal(b1-3)[GlcNAc(b1-6)]GalNAc
# Method in brief: as §1
# [38] = target: Gal(b1-3)[GlcNAc(b1-6)]GlcNAc
# Method in brief: as §1
binder,measurement,setting,value
B1,glycan array binding signal (z-score),Fuc(a1-2)Gal,-0.241
same,glycan array binding signal (z-score),Fuc(a1-2)Gal(b1-3)GalNAc,-0.218
same,glycan array binding signal (z-score),[1],0.711
same,glycan array binding signal (z-score),[2],-0.228
same,glycan array binding signal (z-score),[3],0.654
same,glycan array binding signal (z-score),[4],0.11
same,glycan array binding signal (z-score),[5],-0.371
same,glycan array binding signal (z-score),Fuc(a1-2)Gal(b1-4)Glc,-0.333
same,glycan array binding signal (z-score),Fuc(a1-2)Gal(b1-4)GlcNAc,-0.214
same,glycan array binding signal (z-score),[6],-0.367
same,glycan array binding signal (z-score),[7],0.134
same,glycan array binding signal (z-score),[8],-0.31
same,glycan array binding signal (z-score),[9],-0.355
same,glycan array binding signal (z-score),[10],-0.259
same,glycan array binding signal (z-score),Fuc(a1-2)GlcNAc,0.45
same,glycan array binding signal (z-score),Fuc(a1-2)[Gal(a1-3)]Gal,-0.255
same,glycan array binding signal (z-score),[11],0.089
same,glycan array binding signal (z-score),[12],-0.241
same,glycan array binding signal (z-score),[13],-0.056
same,glycan array binding signal (z-score),[14],1.69
same,glycan array binding signal (z-score),[15],1.21
same,glycan array binding signal (z-score),[16],-0.197
same,glycan array binding signal (z-score),[17],-0.263
same,glycan array binding signal (z-score),[18],-0.447
same,glycan array binding signal (z-score),[19],-0.109
same,glycan array binding signal (z-score),[20],0.569
same,glycan array binding signal (z-score),[21],-0.217
same,glycan array binding signal (z-score),Fuc(a1-3)GlcNAc,-0.129
same,glycan array binding signal (z-score),[22],-0.51
same,glycan array binding signal (z-score),[23],-0.268
same,glycan array binding signal (z-score),[24],-0.444
same,glycan array binding signal (z-score),[25],-0.189
same,glycan array binding signal (z-score),[26],-0.009
same,glycan array binding signal (z-score),Fuc(a1-4)GlcNAc,-0.539
same,glycan array binding signal (z-score),Fuc(b1-3)GlcNAc,-0.16
same,glycan array binding signal (z-score),Gal(a1-2)Gal,-0.328
same,glycan array binding signal (z-score),Gal(a1-3)Gal,-0.267
same,glycan array binding signal (z-score),Gal(a1-3)Gal(b1-3)Glc,-0.13
same,glycan array binding signal (z-score),Gal(a1-3)Gal(b1-3)GlcNAc,-0.366
same,glycan array binding signal (z-score),Gal(a1-3)Gal(b1-4)GlcNAc,-0.293
same,glycan array binding signal (z-score),[27],-0.431
same,glycan array binding signal (z-score),Gal(a1-3)GlcNAc,-0.47
same,glycan array binding signal (z-score),[28],-0.5
same,glycan array binding signal (z-score),Gal(a1-4)Gal(b1-4)Gal,-0.157
same,glycan array binding signal (z-score),Gal(a1-4)Gal(b1-4)GalNAc,-0.358
same,glycan array binding signal (z-score),Gal(a1-4)GlcNAc,-0.074
same,glycan array binding signal (z-score),Gal(a1-6)Glc,0.178
same,glycan array binding signal (z-score),Gal(b1-2)Gal,-0.401
same,glycan array binding signal (z-score),Gal(b1-3)Gal,-0.354
same,glycan array binding signal (z-score),Gal(b1-3)GalNAc,-0.375
same,glycan array binding signal (z-score),[29],-0.358
same,glycan array binding signal (z-score),[30],-0.105
same,glycan array binding signal (z-score),[31],-0.195
same,glycan array binding signal (z-score),[32],-0.373
same,glycan array binding signal (z-score),[33],-0.452
same,glycan array binding signal (z-score),[34],-0.439
same,glycan array binding signal (z-score),[35],-0.182
same,glycan array binding signal (z-score),[36],0.013
same,glycan array binding signal (z-score),[37],-0.191
same,glycan array binding signal (z-score),[38],-0.279
